Source: US20260015418A1 (ABL BIO, published 2026)

Key:
[1] = biological target: human 4-1BB on Jurkat cells (Promega) (human, UniProt Q07011 24-255); experiment: cell-based or functional assay
[2] = biological target: T1, human ROR1-Fc protein (Sino Biological, 13968-H02H1) (human, UniProt Q01973 part only); experiment: DACE ELISA; 0 day in human serum, against day 0
T1 construct: Bought protein; also called human ROR1 protein (13968-H02H1, Fc tag)
Description: (§1) A 96-well microtiter plate (NUNC, 446612) was coated overnight at 4° C. with human ROR1-Fc protein (Sinobio, 13968-H02H1) at 100 ng/well in PBS. The plate was then incubated with 1% BSA buffer (1×PBS, 1% (v/v) BSA) at 200 μl/well at 37° C. for 2 hours to block non-specific binding. Thereafter, the blocking solution was discarded and fourfold dilutions of each bispecific antibody test material (starting from 100 nM) were added to the wells. The plate was incubated at 37° C. for 2 hours and then washed with PBS-T (1×PBS/0.05% (v/v) Tween-20). Subsequently, human 4-1BB-His protein (Sinobio, 10041-H08H) dissolved in 1% BSA buffer was added at 100 ng/well and incubated at 37° C. for 1 hour. After washing with PBS-T, the plate was incubated with anti-His HRP (Roche, Cat: 11965085001) at 37° C. for 1 hour. After washing, color development was performed with TMB (tetramethylbenzidine, Sigma, T0440) and the color development was stopped with 0.5M sulfuric acid (Samchun Chemicals, S1410), and the absorbance (OD) at 450-650 nm was read using a spectrophotometer. Four-parameter logistic curve analysis was performed using GraphPad software.

[3] = biological target: T1, human ROR1-Fc protein (Sino Biological, …); experiment: DACE ELISA; 0 day in monkey serum, against day 0
Description: as §1

[4] = biological target: T1, human ROR1-Fc protein (Sino Biological, …); experiment: DACE ELISA; 2 days in human serum, against day 0
Description: as §1

[5] = biological target: T1, human ROR1-Fc protein (Sino Biological, …); experiment: DACE ELISA; 7 days in human serum, against day 0
Description: as §1

[6] = biological target: T1, human ROR1-Fc protein (Sino Biological, …); experiment: DACE ELISA; 14 days in human serum, against day 0
Description: as §1

[7] = biological target: T1, human ROR1-Fc protein (Sino Biological, …); experiment: DACE ELISA; 2 days in monkey serum, against day 0
Description: as §1

[8] = biological target: T1, human ROR1-Fc protein (Sino Biological, …); experiment: DACE ELISA; 7 days in monkey serum, against day 0
Description: as §1

[9] = biological target: T1, human ROR1-Fc protein (Sino Biological, …); experiment: DACE ELISA; 14 days in monkey serum, against day 0
Description: as §1

[10] = biological target: T1, human ROR1-Fc protein (Sino Biological, …); experiment: DACE ELISA (ROR1-Fc coated, 4-1BB-His detection); 0 day in human serum at 37°C
Description: as §1

[11] = biological target: T1, human ROR1-Fc protein (Sino Biological, …); experiment: DACE ELISA (ROR1-Fc coated, 4-1BB-His detection); 0 day in monkey serum at 37°C
Description: as §1

[12] = biological target: T1, human ROR1-Fc protein (Sino Biological, …); experiment: DACE ELISA (ROR1-Fc coated, 4-1BB-His detection); 2 days in human serum at 37°C
Description: as §1

[13] = biological target: T1, human ROR1-Fc protein (Sino Biological, …); experiment: DACE ELISA (ROR1-Fc coated, 4-1BB-His detection); 7 days in human serum at 37°C
Description: as §1

[14] = biological target: T1, human ROR1-Fc protein (Sino Biological, …); experiment: DACE ELISA (ROR1-Fc coated, 4-1BB-His detection); 14 days in human serum at 37°C
Description: as §1

[15] = biological target: T1, human ROR1-Fc protein (Sino Biological, …); experiment: DACE ELISA (ROR1-Fc coated, 4-1BB-His detection); 2 days in monkey serum at 37°C
Description: as §1

[16] = biological target: T1, human ROR1-Fc protein (Sino Biological, …); experiment: DACE ELISA (ROR1-Fc coated, 4-1BB-His detection); 7 days in monkey serum at 37°C
Description: as §1

[17] = biological target: T1, human ROR1-Fc protein (Sino Biological, …); experiment: DACE ELISA (ROR1-Fc coated, 4-1BB-His detection); 14 days in monkey serum at 37°C
Description: as §1

T1 sequence (Q01973 30-403 limits assumed): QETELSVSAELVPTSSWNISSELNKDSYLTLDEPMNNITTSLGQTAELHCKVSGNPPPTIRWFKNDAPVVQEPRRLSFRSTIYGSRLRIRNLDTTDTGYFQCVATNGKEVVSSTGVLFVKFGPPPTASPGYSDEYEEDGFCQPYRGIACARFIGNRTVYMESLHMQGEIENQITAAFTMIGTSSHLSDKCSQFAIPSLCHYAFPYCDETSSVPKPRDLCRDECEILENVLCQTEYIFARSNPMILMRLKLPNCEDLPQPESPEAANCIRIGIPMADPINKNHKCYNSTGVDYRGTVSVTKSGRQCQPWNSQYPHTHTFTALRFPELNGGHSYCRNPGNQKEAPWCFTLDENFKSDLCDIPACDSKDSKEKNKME
UniProt Q07011, sequence (Q07011 24-255): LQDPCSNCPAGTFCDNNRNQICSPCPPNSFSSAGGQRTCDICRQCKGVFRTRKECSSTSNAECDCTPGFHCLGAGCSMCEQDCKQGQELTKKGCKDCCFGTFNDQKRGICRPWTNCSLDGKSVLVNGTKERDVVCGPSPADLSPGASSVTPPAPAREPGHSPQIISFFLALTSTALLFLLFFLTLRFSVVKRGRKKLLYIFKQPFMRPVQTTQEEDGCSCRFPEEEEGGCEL

EC50 (nM), 4-1BB NFκB luciferase reporter bioassay with AGS (ROR1-positive) cells [1]: 0.2 nM
EC50 (nM), 4-1BB NFκB luciferase reporter bioassay with CHOK1-ROR1 cells [1]: 0.018 nM
EC50 Ratio (%) [2]: 100%
EC50 Ratio (%) [3]: 100%
EC50 Ratio (%) [4]: 62%
EC50 Ratio (%) [5]: 54%
EC50 Ratio (%) [6]: 50%
EC50 Ratio (%) [7]: 67%
EC50 Ratio (%) [8]: 56%
EC50 Ratio (%) [9]: 57%
EC50 [10]: 0.228 nM
EC50 [11]: 0.24 nM
EC50 [12]: 0.365 nM
EC50 [13]: 0.42 nM
EC50 [14]: 0.457 nM
EC50 [15]: 0.36 nM
EC50 [16]: 0.427 nM
EC50 [17]: 0.419 nM
B1: BA6x1A10M12 anti-ROR1/anti-4-1BB bispecific antibody (control with parental BA6 clone) (bispecific antibody, human IgG1, lambda)
heavy: EVQLLESGGGLVQPGGSLRLSCAASGFTFSNYDMSWVRQAPGKGLEWVSAIYHSGSSKYYADSVKGRFTISRDNSKNTLYLQMNSLRAEDTAVYYCARGGNGAWDTGFDYWGQGTLVTVSSASTKGPSVFPLAPSSKSTSGGTAALGCLVKDYFPEPVTVSWNSGALTSGVHTFPAVLQSSGLYSLSSVVTVPSSSLGTQTYICNVNHKPSNTKVDKKV[human IgG1 Fc with changes not shown]GSGSGSGSGSGSGSGSGSQSVLTQPPSASGTPGQRVTISCSGSSSNIGNNYVTWYQQLPGTAPKLLIYADSHRPSGVPDRFSGSKSGTSASLAISGLRSEDEADYYCATWDYSLSGYVFGCGTKLTVLGGGGSGGGGSGGGGSGGGGSEVQLLESGGGLVQPGGSLRLSCAASGFTFSSYDMSWVRQAPGKCLEWVSWISYSGGSIYYADSVKGRFTISRDNSKNTLYLQMNSLRAEDTAVYYCARDAQRNSMREFDYWGQGTLVTVSS
light: QSVLTQPPSASGTPGQRVTISCSGSSSNIGSNDVSWYQQLPGTAPKLLIYYDNNRPSGVPDRFSGSKSGTSASLAISGLRSEDEADYYCGAWDDSLSGYVFGGGTKLTVLGQPKAAPSVTLFPPSSEELQANKATLVCLISDFYPGAVTVAWKADSSPVKAGVETTTPSKQSNNKYAASSYLSLTPEQWKSHRSYSCQVTHEGSTVEKTVAPAECS
notes: Control bispecific; also called BA6 × 1A10M12
